Test results published in US6319955A, “Use of MEK1 inhibitors as protective agents against damage due to ischemia” (priority 2000, dated 2001).
Numbered stars: 1 amine (or outer) side, 2 acyl side, 3 side chain; on linkers, the order of the positions; unused ones are H or OH. Bridge positions count the residues as written; N and C are the ends. Square brackets hold non-standard residues; d marks the D form. Peptide text beside a SMILES is read from it. I, II: the chains in the order shown. Actinocin(9to1) = Cc1c2oc3c(C)ccc(C(=O)[*:1])c3nc-2c(C(=O)[*:2])c(N)c1=O; NMeV = CN[C@H](C(=O)O)C(C)C; Sar = CNCC(=O)O

Legend:
HT22 cells [1] = format: cell-based, mouse
HT22 cells [2] = assay: HT22 cell death by TNFα plus actinomycin D (MTT assay); format: cell-based, mouse; settings: each agent alone

CNc1ccc2oc(C[C@H]3O[C@@]4(CC[C@H]3C)O[C@H]([C@H](C)C(=O)c3ccc[nH]3)[C@H](C)C[C@H]4C)nc2c1C(=O)O [A23187]
A23187 concentration inducing death in HT22 cells (HT22 cells [1]): > 300 nM
cell death induced (HT22 cells [1]): extensive cell death

Cc1c2oc3c(C)ccc(C(=O)N[C@@H]4C(=O)N[C@H](C(C)C)C(=O)N5CCC[C@H]5C(=O)N(C)CC(=O)N(C)[C@@H](C(C)C)C(=O)O[C@@H]4C)c3nc-2c(C(=O)N[C@@H]2C(=O)N[C@H](C(C)C)C(=O)N3CCC[C@H]3C(=O)N(C)CC(=O)N(C)[C@@H](C(C)C)C(=O)O[C@@H]2C)c(N)c1=O [actinomycin D] (I: T[dV]P[Sar][NMeV] / II: T[dV]P[Sar][NMeV]; ester I:1-I:C, II:1-II:C; linker I:N-II:N via Actinocin(9to1))
cell death induced by single agent (HT22 cells [2]): Neither TNFα nor actinomycin D induced death

TNFα
cell death induced by single agent (HT22 cells [2]): Neither TNFα nor actinomycin D induced death
